Reference: the supplement of paper PMC4166925
± gives the standard deviation of the averaged measurements. The full ranking holds about 33,000 sequences; the median of “E-score (dimensionless, -0.5 to 0.5)” is about -0.046, and the highest 2% start at about 0.36. The list shows a part of the results.

The sequences below were run on T1, SpTbr T-box DNA-binding domain (GST fusion) (assay: PBM E-score of 8-mer (E-score (dimensionless, -0.5 to 0.5)); Tbr is Tbrain of the sea star Patiria miniata (Pm) or the sea urchin Strongylocentrotus purpuratus (Sp); higher = stronger binding preference; most listed sequences are background and not binding sites). Details: the construct has about 5 more residues each side.
T1 sequence: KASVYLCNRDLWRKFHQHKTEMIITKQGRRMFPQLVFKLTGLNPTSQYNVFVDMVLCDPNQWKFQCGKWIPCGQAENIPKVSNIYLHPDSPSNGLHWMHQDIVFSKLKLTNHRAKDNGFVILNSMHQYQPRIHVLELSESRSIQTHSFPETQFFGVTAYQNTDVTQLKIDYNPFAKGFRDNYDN
Experimental: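 Universal protein-binding microarray (Agilent AMADID 016060, 60-bp probes with a 35-bp variable region) incubated with 200 nM GST-fused Strongylocentrotus purpuratus Tbr T-box DNA-binding domain (residues 362-554) in PBS pH 7.5. Scored for every ungapped 8-mer (given with its reverse complement) as E-score (range -0.5 to 0.5; >0.45 counts as bound) and Z-score of median probe intensity. Two replicate arrays (datasets 1 and 2).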
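Also: protein at 200 nM in PBS on universal double-stranded arrays.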

CTGACCGC and TCATAGGA are within error of each other in “PBM E-score of 8-mer” value: -0.233 ± 0.18 for the first, -0.255 ± 0.0034 for the second.

ACATGGGT and AGCTACGC are within error of each other in “PBM E-score of 8-mer” value: -0.0645 ± 0.017 for the first, -0.043 ± 0.027 for the second.

TAAAGAAA and ACGTTAGG are within error of each other in “PBM E-score of 8-mer” value: -0.13 ± 0.11 for the first, -0.121 ± 0.026 for the second.

Compared with ACGAACGC, CGCGGATA is higher in “PBM E-score of 8-mer” value: -0.0049 ± 0.0054 for the first, 0.0485 ± 0.018 for the second.

First: GGTAGTCA
Second: ATCACCAG
The “PBM E-score of 8-mer” value of the first is lower: -0.301 ± 0.037 for the first, -0.037 ± 0.034 for the second.

First: ACTGAAAA
Second: CTTCTCTC
The “PBM E-score of 8-mer” value of the first is lower: -0.137 ± 0.0042 for the first, 0.08 ± 0.04 for the second.

First: CTTAGCTA
Second: ACGCCTCG
The “PBM E-score of 8-mer” value of the first is lower: -0.119 ± 0.005 for the first, 0.373 ± 0.019 for the second.

Going from GCGTTGTA to CCATGAAA, the “PBM E-score of 8-mer” value falls from 0.0523 ± 0.011 to -0.297 ± 0.0053.

CTAGCCAC and ACGGATCT are within error of each other in “PBM E-score of 8-mer” value: -0.0819 ± 0.074 for the first, -0.0314 ± 0.037 for the second.

GTATTCGA and GTGGGCGA are within error of each other in “PBM E-score of 8-mer” value: 0.0227 ± 0.011 for the first, 0.00498 ± 0.052 for the second.

CCGGAGAC and CAGAGGAC are within error of each other in “PBM E-score of 8-mer” value: 0.00931 ± 0.14 for the first, -0.121 ± 0.0091 for the second.

First: ACTAGTAT
Second: ATAGAACC
The “PBM E-score of 8-mer” value of the first is higher: -0.0296 ± 0.0029 for the first, -0.113 ± 0.034 for the second.

ACAGACCA and GGACTCCA are within error of each other in “PBM E-score of 8-mer” value: -0.22 ± 0.021 for the first, -0.184 ± 0.051 for the second.

Compared with AGAAAACG, CCCCATGA is lower in “PBM E-score of 8-mer” value: -0.22 ± 0.034 for the first, -0.299 ± 0.013 for the second.

ACCATCCA and CCATCAAG are within error of each other in “PBM E-score of 8-mer” value: -0.225 ± 0.058 for the first, -0.23 ± 0.037 for the second.

First: CCTGGGCA
Second: ATTAAGCG
The “PBM E-score of 8-mer” value of the first is lower: -0.133 ± 0.0046 for the first, -0.0837 ± 0.025 for the second.

First: CGTCCGGA
Second: ACGTCTAT
The “PBM E-score of 8-mer” value of the first is lower: -0.35 ± 0.056 for the first, -0.0609 ± 0.029 for the second.

First: CACGTATA
Second: AGCGTTCA
The “PBM E-score of 8-mer” value of the first is higher: 0.09176 ± 0.00022 for the first, 0.0694 ± 0.017 for the second.

GGCAAACC and TAACCTCA are within error of each other in “PBM E-score of 8-mer” value: -0.15 ± 0.048 for the first, -0.153 ± 0.018 for the second.

Compared with CATCGGAC, AGCTATGA is lower in “PBM E-score of 8-mer” value: -0.137 ± 0.028 for the first, -0.23 ± 0.034 for the second.

AAATCTGA and GCGGTGAA are within error of each other in “PBM E-score of 8-mer” value: -0.0698 ± 0.0075 for the first, -0.0362 ± 0.031 for the second.

First: CATACCTC
Second: ACTCATCC
The “PBM E-score of 8-mer” value of the first is higher: 0.0972 ± 0.12 for the first, -0.241 ± 0.082 for the second.

Going from AAACAGCC to GCTACGAA, the “PBM E-score of 8-mer” value rises from 0.0781 ± 0.0017 to 0.114 ± 0.023.

ATGATTGG and AGCCTGAC are within error of each other in “PBM E-score of 8-mer” value: -0.19 ± 0.041 for the first, -0.174 ± 0.023 for the second.

GCATGTAA and ATCAGGCA are within error of each other in “PBM E-score of 8-mer” value: -0.068 ± 0.03 for the first, -0.0264 ± 0.026 for the second.

ACCTCTCT and GACCCACC are within error of each other in “PBM E-score of 8-mer” value: 0.0527 ± 0.025 for the first, 0.0332 ± 0.036 for the second.

First: GATACCCA
Second: AACGCTCC
The “PBM E-score of 8-mer” value of the first is lower: -0.128 ± 0.036 for the first, -0.0485 ± 0.026 for the second.

CAATCTGG and TAGATCAA are within error of each other in “PBM E-score of 8-mer” value: -0.2 ± 0.023 for the first, -0.225 ± 0.045 for the second.

Going from CACATTAA to AAAGTGAT, the “PBM E-score of 8-mer” value rises from 0.0764 ± 0.025 to 0.205 ± 0.0065.

AAAGCGTA and GCACGATA are within error of each other in “PBM E-score of 8-mer” value: -0.0604 ± 0.043 for the first, -0.117 ± 0.014 for the second.

Going from ACTAAAGC to AGATAAAA, the “PBM E-score of 8-mer” value falls from -0.0046 ± 0.012 to -0.17 ± 0.043.

Compared with AATTTCGT, AGTAACGA is higher in “PBM E-score of 8-mer” value: -0.116 ± 0.0052 for the first, 0.0895 ± 0.002 for the second.

First: GACACATA
Second: AGGAACTC
The “PBM E-score of 8-mer” value of the first is higher: 0.359 ± 0.005 for the first, -0.188 ± 0.019 for the second.

First: CGCTTGAG
Second: AAGCGACA
The “PBM E-score of 8-mer” value of the first is lower: 0.0359 ± 0.022 for the first, 0.206 ± 0.027 for the second.

AAGGTAGT and AACGCAGC are within error of each other in “PBM E-score of 8-mer” value: -0.0919 ± 0.035 for the first, -0.119 ± 0.12 for the second.

Going from TCGCTAAA to AGGTCCAT, the “PBM E-score of 8-mer” value falls from 0.0612 ± 0.059 to -0.2878 ± 0.00046.

First: CACTCACA
Second: ACTGTTCA
The “PBM E-score of 8-mer” value of the first is higher: 0.377 ± 0.017 for the first, -0.0388 ± 0.05 for the second.

First: CGATATCA
Second: CACCGTCC
The “PBM E-score of 8-mer” value of the first is higher: 0.208 ± 0.0049 for the first, -0.0887 ± 0.064 for the second.

AATCGCCG and GCCGGTGA are within error of each other in “PBM E-score of 8-mer” value: -0.0609 ± 0.08 for the first, 0.0254 ± 0.033 for the second.

Going from AGGCCGCA to ATTATATA, the “PBM E-score of 8-mer” value falls from -0.0247 ± 0.035 to -0.254 ± 0.0049.

Compared with CCGACACA, AATGGAGT is lower in “PBM E-score of 8-mer” value: 0.36 ± 0.022 for the first, -0.196 ± 0.015 for the second.

ACCTAGCT and AAAATCAT are within error of each other in “PBM E-score of 8-mer” value: -0.0977 ± 0.033 for the first, -0.105 ± 0.033 for the second.

ATGTCCTG and ATTGGATG are within error of each other in “PBM E-score of 8-mer” value: -0.0692 ± 0.062 for the first, -0.0731 ± 0.021 for the second.
